{"source": "ChEMBL document CHEMBL4888484", "about": "“Replenishing the malaria drug discovery pipeline: Screening and hit evaluation of the MMV Hit Generation Library 1 (HGL1) against asexual blood stage Plasmodium falciparum ,using a nano luciferase reporter read-out” (2022)", "note": "In all, about 150,000 compounds went through this assay and about 540 (0.36%) showed an effect of 50% or more. Some of the results follow."}
{"system": "Plasmodium falciparum", "assay": "Primary screen in NF54 nanoGlo assay, in single point, at 2uM, 72h; a lower Z score goes with more inhibition", "type": "functional, Erythrocyte", "settings": "timepoint 72 hour", "units": {"% Inhibition": "%"}}
{"compound": "Cc1cc(C(=O)NCCc2cnn(C)c2)cc2sc(N)nc12", "% Inhibition": -3, "Z score": 0.42}
{"compound": "COc1ccc([C@H]2C(=O)N(CCc3ccccc3)CC(=O)N2Cc2ccc(Cl)cc2)cc1", "% Inhibition": -1, "Z score": 0.16}
{"compound": "Cc1ncc(C(=O)N(C)Cc2ccsc2)cn1", "% Inhibition": -14, "Z score": 1.46}
{"compound": "CC(=O)NCC(=O)N1CCCCC[C@H]1c1noc(-c2ccccc2)n1", "% Inhibition": 7, "Z score": -0.85}
{"compound": "Fc1ccccc1N1CCN(Cc2csc(-c3cccs3)n2)CC1", "% Inhibition": -32, "Z score": 3.7}
{"compound": "CCc1ncsc1C(=O)Nc1cc(C(N)=O)ccc1CN(C)C", "% Inhibition": -15, "Z score": 2.08}
{"compound": "Cc1ccc(NC(=O)c2c(C)oc3nc(C)nc(N4CCCC4)c23)cc1", "% Inhibition": -14, "Z score": 2.46}
{"compound": "Cc1nccc(CNC(=O)c2cc(C(C)C)ccc2O)n1", "% Inhibition": -3, "Z score": 0.42}
{"compound": "CCNC(=O)NCc1ccc([C@H](O)c2ccccc2)s1", "% Inhibition": -12, "Z score": 1.59}
{"compound": "CC[C@@H]1Oc2ccc(S(=O)(=O)N3CCN(C(=O)Cc4ccc(OC)cc4)CC3)cc2NC1=O", "% Inhibition": -16, "Z score": 1.62}
{"compound": "Cc1nc(N2CC3(CCCO3)C2C2CC2)c2cc[nH]c2n1", "note": "(stereo not drawn)", "% Inhibition": -5, "Z score": 0.9}
{"compound": "C[C@@H](CO)NCc1cc(C2CCN(C(=O)OC(C)(C)C)CC2)no1", "% Inhibition": -7, "Z score": 0.82}
{"compound": "CN=C(NCc1ccccc1Cl)NC1CC1", "% Inhibition": 3, "Z score": -0.56}
{"compound": "c1ccc(-c2nnc(COc3ccc4c(c3)OCO4)o2)cc1", "% Inhibition": -1, "Z score": 0.11}
{"compound": "Nc1cc(-c2ccccc2CN2CCOCC2)ccn1", "% Inhibition": -10, "Z score": 1.68}
{"compound": "Cc1nc2n(c1CN1CCN(C(=O)c3ccon3)CC1)CCCC2", "% Inhibition": -13, "Z score": 1.89}
{"compound": "CN(C)c1ccc(CNC(=O)c2cc3n(n2)CCCN(Cc2ccc(F)cc2)C3=O)cc1", "% Inhibition": -10, "Z score": 0.98}
{"compound": "CCOC(=O)N[C@H](CNC(=O)c1ccc(F)cc1Br)CC(C)C", "% Inhibition": 5, "Z score": -0.71}
{"compound": "CN1CCN(C(=O)c2ccn(C)n2)C[C@@]12CCC(=O)N(CC1CC1)CC2", "% Inhibition": -1, "Z score": 0.16}
{"compound": "CC(C)C(=O)N1CCCN(S(=O)(=O)c2cccs2)CC1", "% Inhibition": -7, "Z score": 1.11}
{"compound": "CCCc1cc(C(=O)N2CCNC[C@H]2C(=O)Nc2ccc(C)nc2)ccn1", "% Inhibition": -15, "Z score": 1.48}
{"compound": "Cc1ccsc1CCC(=O)NCCOCCN1C(=O)CCC1=O", "% Inhibition": -9, "Z score": 1.47}
{"compound": "CC(C)(C)c1ccc(N2CCC(NC(=O)c3ccc(C(N)=O)nc3)CC2)cc1", "% Inhibition": -7, "Z score": 0.89}
{"compound": "CN(C)c1ccc(C=C(c2nnnn2-c2ccccc2)c2nnnn2-c2ccccc2)cc1", "% Inhibition": 0, "Z score": 0.06}
{"compound": "Cc1nc(C(C)C)sc1C(=O)N(Cc1ccccn1)Cc1ccco1", "% Inhibition": -11, "Z score": 1.62}
{"compound": "Cc1nc(O)c(C(=O)N2CC[C@H](OCCC(C)C)C2)cc1Br", "% Inhibition": 17, "Z score": -1.87}
{"compound": "COc1ccc2[nH]c(CNC3CCN(c4ccccc4F)CC3)cc2c1", "% Inhibition": -17, "Z score": 1.58}
{"compound": "CN1CCCN(c2ccc(NC(=O)N[C@H]3CCc4cc(F)ccc43)cc2F)CC1", "% Inhibition": 0, "Z score": -0.01}
{"compound": "COc1ccc2c(c1)N1CCN(c3ccccc3F)CC1C(C(=O)NC1CC1)C2", "note": "(stereo not drawn)", "% Inhibition": -9, "Z score": 1.16}
{"compound": "Cn1ccnc1-c1nccn1-c1cccc(-c2cnc[nH]2)c1", "% Inhibition": 0, "Z score": -0.05}
{"compound": "O=C(COc1ccc(CCO)cc1-n1nc2ccccc2n1)N1CCCc2ccccc21", "% Inhibition": 5, "Z score": -0.69}
{"compound": "CC1(C)CC(N2CC(O)=C(c3nc4ccccc4s3)C2=N)CC(C)(C)N1", "% Inhibition": 10, "Z score": -1.2}
{"compound": "Cc1nn(C)c2nc(NCCCN3CCC[C@H](C)C3)sc12", "% Inhibition": -14, "Z score": 2.46}
{"compound": "O[C@@H](COCc1ccccc1)Cn1ccnc1-c1cccnc1", "% Inhibition": 3, "Z score": -0.48}
{"compound": "Cc1ncoc1C(=O)NC(C)(C)CC1CCCCCC1", "% Inhibition": -18, "Z score": 1.93}
{"compound": "CN1CCN(c2ccc(F)cc2C(=O)NCc2ccc3cnn(C)c3c2)CC1", "% Inhibition": 36, "Z score": -4.09}
{"compound": "CCOc1ccc(CN2C(=O)CC[C@@]2(C)C(=O)NC2CCCCCCC2)cc1", "% Inhibition": -12, "Z score": 2.02}
{"compound": "Cn1cccc1C(=O)C(=O)NCc1ccccc1", "% Inhibition": -3, "Z score": 0.23}
{"compound": "Clc1ccc2nc(-c3ccco3)c(Nc3ccc4c(c3)OCCO4)n2c1", "% Inhibition": -16, "Z score": 1.56}
{"compound": "O=C(NCCN(CCOCCO)C(=O)C1CC=CC1)C1CC=CC1", "% Inhibition": -3, "Z score": 0.41}
{"compound": "CCOc1cc(CNC(=O)C2CCN(c3nc4ccccc4[nH]3)CC2)ccc1OC", "% Inhibition": 3, "Z score": -0.5}
{"compound": "CN(C)c1ccc(CNC(=O)c2nnn(-c3ccccc3Cl)c2-c2ccccn2)cc1", "% Inhibition": -14, "Z score": 1.65}
{"compound": "CO[C@@]12CC[C@@H](NC(=O)c3cc(C)on3)C[C@@H]1N(C(=O)c1cnc[nH]1)CC2", "% Inhibition": -9, "Z score": 1.17}
{"compound": "CN(Cc1ccc(Cl)cc1)Cn1nc([C@H]2CCS(=O)(=O)C2)oc1=S", "% Inhibition": -9, "Z score": 1.74}
{"compound": "COc1ccc(OC[C@@H](O)CN2CCC(O)CC2)c(CNCc2ccccc2C)c1", "% Inhibition": 18, "Z score": -3.45}
{"compound": "COc1ccc2c(C)c(C(=O)N3CCN(Cc4ccccc4)CC3)oc2c1", "% Inhibition": -11, "Z score": 2.11}
{"compound": "Cc1ccc(Cc2ccccn2)cc1NC(=O)N1CCCC1", "% Inhibition": -3, "Z score": 0.25}
{"compound": "COc1ccc(NS(=O)(=O)[C@H]2CCS(=O)(=O)C2)cc1", "% Inhibition": 2, "Z score": -0.4}
{"compound": "CCOc1nc(N2CCC[C@@H]2C(=O)O)ncc1Cl", "% Inhibition": -2, "Z score": 0.32}
{"compound": "COc1ccccc1N1C(=O)C2C(C1=O)C1(C)CC2(C)CC1=O", "note": "(stereo not drawn)", "% Inhibition": -10, "Z score": 1.38}
{"compound": "O=C(c1c[nH]c2ncc(Br)cc12)C1CC1", "% Inhibition": 12, "Z score": -1.6}
{"compound": "O=C(OCC(=O)N1CCN(Cc2ccccc2)CC1)c1nccc2ccccc12", "% Inhibition": 45, "Z score": -6.07}
{"compound": "O=C(NCCc1ccncc1)c1cccc2[nH]cc(CN3CCCC3)c12", "% Inhibition": 7, "Z score": -1.01}
{"compound": "CCCN1N=C(C(=O)N2CCOCC2)S(=O)(=O)c2cc(Cl)ccc21", "% Inhibition": -7, "Z score": 0.92}
